Experimental findings from US20220403048A1, “BINDING MOLECULES TO ARGINASE II [ARG2]” (Cancer Research Technology Limited, priority 2019, published 2022) are described below.

In general, EC50 refers to the midpoint of the concentration-response curve.

One assay addresses T1, ARG2 (Homo sapiens, UniProt P78540).
T1 sequence (P78540 23-354): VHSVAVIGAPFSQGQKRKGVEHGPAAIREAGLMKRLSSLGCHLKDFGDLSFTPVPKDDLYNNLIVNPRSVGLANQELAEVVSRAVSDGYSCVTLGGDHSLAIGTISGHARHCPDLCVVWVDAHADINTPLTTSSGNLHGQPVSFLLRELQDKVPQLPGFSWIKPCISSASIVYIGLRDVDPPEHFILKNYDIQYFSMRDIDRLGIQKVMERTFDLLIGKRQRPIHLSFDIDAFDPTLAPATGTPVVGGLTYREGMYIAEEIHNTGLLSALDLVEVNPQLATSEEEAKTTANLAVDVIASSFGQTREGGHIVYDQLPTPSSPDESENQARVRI
The assay can be described thus: T cell proliferation assay (BrdU, 96 hours) with exogenous ARG2, improved variant IgGs. The assay is classed as cell-based. The arrangement: human ARG2 (aa23-354); His10 (C); made in house; host or cells: E. coli BL21 (DE3). As to conditions: In Presence of rhARG2, hIgG1. Here is the method:
This assay served to provide evidence of improved functional efficacy for each affinity-matured antibody in comparison to the parent IgG, C0020187 (FIG. 12).
Lead optimisation clones were tested to an endpoint treatment time of 96 hours and the BrdU Cell Proliferation Kit (Roche, France; Cat: 11647229001) was used according to the manufacturer's instructions. R347 was used as the irrelevant control. All clones tested n=2.
Leukocyte cones underwent Ficoll Plaque (GE, Sweden; Cat: 17-1440-02) gradient separation, PBMC's were extracted and pan T cell population isolated by negative selection using the Human T Cell Enrichment Kit (Stemcell Technologies, France; Cat: 19051) according to the manufacturer's instructions.
40000 cells/well were seeded in complete growth media (RMPI 1640, 5% Human Serum Albumin) into a 96 well clear TC treated microplate (Greiner-Bio One, Germany; Cat: 655180). T cells were activated by the addition of ImmunoCult CD3/CD28 (Stemcell Technologies, France; Cat: 10971) at a dilution of 1:40 directly into wells and the plate incubated 37° C., 5% CO2 for 45 minutes.
To determine EC50's of test antibodies, a dilution series was created in sterile TBS/NaCl Buffer at 10× the final assay concentration added to the assay plate containing cells. Plate was incubated for 30 minutes at 37° C., 5% CO2.
ARG2 was added to relevant wells of the plate at a final concentration of 15 μg/ml. The equivalent volume of ARG2 vehicle and test antibody vehicle was added to relevant control wells. The total volume in each well was 200 μl. Cells were treated with test antibodies for a total of 96 hours at 37° C., 5% CO2. Antibodies were tested alongside C0020187 (parent IgG) as a positive control and R347 (irrelevant isotype control antibody) as a negative control.
Assessment of T cell proliferation was performed using the BrdU Cell Proliferation ELISA Kit (Roche, Germany; Cat: 000000011647229001). BrdU labelling reagent was added after 78 hours of antibody treatment and the plate further incubated for 18 hours at 37° C., 5% CO2. The remainder of the assay was performed according to the manufacturer's instructions.
Calculated data was expressed as % of control (Equation 3) and graphical plots were constructed using a four parameter fit and EC50's determined using model 205 in XLFit (IDBS, UK).
All test sample data was corrected for background (mean of no cell control)
% Control=100*((Test Sample−Mean Positive Control)/(Mean Negative Control−Mean Positive Control)) Equation 3:
Mean Positive Control=T Cells in absence of ARG2
Mean Negative Control=T Cells in presence of ARG2
This assay served to provide evidence of improved functional efficacy for each affinity-matured antibody in comparison to the parent IgG, C0020187 (FIG. 14, Table 19). R347 was used as the irrelevant control. […]

The target of another assay is T2, monomeric ARG2 (Homo sapiens, UniProt P78540, E275Q).
T2 construct: human ARG2 (aa23-354); His10 (C); made in house; host or cells: E. coli
T2 sequence (P78540 23-354 E275Q): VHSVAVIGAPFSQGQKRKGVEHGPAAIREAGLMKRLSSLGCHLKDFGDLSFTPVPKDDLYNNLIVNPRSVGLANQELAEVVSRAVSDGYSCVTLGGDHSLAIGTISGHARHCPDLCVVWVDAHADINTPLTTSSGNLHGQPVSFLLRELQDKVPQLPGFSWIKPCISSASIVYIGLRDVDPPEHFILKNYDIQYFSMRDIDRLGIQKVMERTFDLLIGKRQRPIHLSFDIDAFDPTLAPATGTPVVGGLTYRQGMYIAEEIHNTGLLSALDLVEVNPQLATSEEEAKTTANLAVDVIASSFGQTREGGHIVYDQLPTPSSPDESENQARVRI
The assay can be described thus: Human monomeric ARG2 enzyme inhibition assay. It is filed as biochemical. As to conditions: purified recombinant human IgG1, FIG. 5. On the procedure: ARG2 specific recombinant IgG1 were screened for their ability to inhibit enzymatic activity of monomeric ARG2. In this assay, the ability of ARG2 specific recombinant IgG1 to inhibit the enzymatic activity of monomeric ARG2 was determined by measuring the production of urea, the product of L-arginine turnover by monomeric ARG2.
IC50 values were determined by testing a dilution series of the ARG2 specific recombinant IgG1, prepared in TBS.
10 μl of ARG2 specific recombinant IgG1 (dilution series) were added to a Greiner Bio-One® 384 well assay plate (Greiner Bio-one, UK; cat: 781901). […]
Urea was detected by the simultaneous addition of equal volumes of O-Phthaldialdehyde (1.5 mM O-Phthaldialdehyde, 7% H2SO4, 0.03% Brij L23) and N-(1-Napthyl)ethylenediamine (1.66 mM N-(1-Napthyl)ethylenediamine, 81 mM Boric acid, 21% H2SO4, 0.03% Brij L23) followed by an 18 minute incubation at room temperature before the colorimetric product was quantified on the Pherastar by measuring absorbance at 505 nm.
ARG2 specific recombinant IgG1 were tested alongside N-Hydroxyl-L-Arginine (a small molecule competitive inhibitor of ARG2) as a positive control and NIP228 (irrelevant isotype control antibody) as a negative control. Data points were plotted and IC50 values determined using a four parameter fit in GraphPad Prism (FIG. 5).

B1: C0020187: anti-ARG2 antibody, parent lead isolation clone, VH SEQ ID NO: 12, VL SEQ ID NO: 17 (antibody, listed as Homo sapiens, V domains shown)
VH: [about 100 residues not given here]LRADLGLYMDLWGRGTLVTVSS
VL: QSVLTQPPSVSAAPGQKVTISCSGSSSNIGNHYVSWYQQLPGTAPKLLIYDNSERPSGIPDRFSGSKSGTSATLGITGLQTGDEADYYCGTWDSSLSALVFGGGTKLTVL
modifications: C0020187
As for B1, in the assay with ARG2 (96 hours), the EC50 was found to be 1070 nM and the “Maximum % Proliferation” value is on record as 68%. In the assay with ARG2 (top conc 2 μM, n=2), the EC50 was over 2000 nM and the “Maximum % Proliferation” value is 61%. The “inhibition of the activity of human monomeric ARG2” value in the assay with monomeric ARG2 was “inhibited”.
